{
  "source": "paper PMC9911399",
  "about": "“Two distinct binding modes provide the RNA-binding protein RbFox with extraordinary sequence specificity”",
  "binders": {"B1": {"name": "ACAAACU (DNA:RNA)", "RNA": "GGGAGACCGGAAUUCAGAUUGUCCACAAACUUUAAAUCCCGUCGUAGCCACCA", "DNA 1": "CAATCTGAATTCCGGTCTCCC", "DNA 2": "TGGTGGCTACGACGGGATT"}, "B2": {"name": "UGAUGUG (DNA:RNA)", "RNA": "B1 RNA with A25U, C26G, A28U, A29G, C30U, U31G", "DNA 1": "CAATCTGAATTCCGGTCTCCC", "DNA 2": "TGGTGGCTACGACGGGATT"}, "B3": {"name": "CUGGGAU (DNA:RNA)", "RNA": "B1 RNA with A25C, C26U, A27G, A28G, A29G, C30A", "DNA 1": "CAATCTGAATTCCGGTCTCCC", "DNA 2": "TGGTGGCTACGACGGGATT"}, "B4": {"name": "GAAUCAU (DNA:RNA)", "RNA": "B1 RNA with A25G, C26A, A28U, A29C, C30A", "DNA 1": "CAATCTGAATTCCGGTCTCCC", "DNA 2": "TGGTGGCTACGACGGGATT"}, "B5": {"name": "ACCCGCA (DNA:RNA)", "RNA": "B1 RNA with A27C, A28C, A29G, U31A", "DNA 1": "CAATCTGAATTCCGGTCTCCC", "DNA 2": "TGGTGGCTACGACGGGATT"}, "B6": {"name": "GAUCAUA (DNA:RNA)", "RNA": "B1 RNA with A25G, C26A, A27U, A28C, C30U, U31A", "DNA 1": "CAATCTGAATTCCGGTCTCCC", "DNA 2": "TGGTGGCTACGACGGGATT"}, "B7": {"name": "GUAGGCC (DNA:RNA)", "RNA": "B1 RNA with A25G, C26U, A28G, A29G, U31C", "DNA 1": "CAATCTGAATTCCGGTCTCCC", "DNA 2": "TGGTGGCTACGACGGGATT"}, "B8": {"name": "AGGGACU (DNA:RNA)", "RNA": "B1 RNA with C26G, A27G, A28G", "DNA 1": "CAATCTGAATTCCGGTCTCCC", "DNA 2": "TGGTGGCTACGACGGGATT"}, "B9": {"name": "UAGCUAC (DNA:RNA)", "RNA": "GGGAGACCGGAAUUCAGAUUGUCCUAGCUACUUAAAUCCCGUCGUAGCCACCA", "DNA 1": "CAATCTGAATTCCGGTCTCCC", "DNA 2": "TGGTGGCTACGACGGGATT"}, "B10": {"name": "ACGCUAG (DNA:RNA)", "RNA": "B9 RNA with U25A, A26C, C31G", "DNA 1": "CAATCTGAATTCCGGTCTCCC", "DNA 2": "TGGTGGCTACGACGGGATT"}, "B11": {"name": "GAGUCGC (DNA:RNA)", "RNA": "B9 RNA with U25G, C28U, U29C, A30G", "DNA 1": "CAATCTGAATTCCGGTCTCCC", "DNA 2": "TGGTGGCTACGACGGGATT"}, "B12": {"name": "AUCACGU (DNA:RNA)", "RNA": "B1 RNA with C26U, A27C, A29C, C30G", "DNA 1": "CAATCTGAATTCCGGTCTCCC", "DNA 2": "TGGTGGCTACGACGGGATT"}, "B13": {"name": "GGAGCGC (DNA:RNA)", "RNA": "B1 RNA with A25G, C26G, A28G, A29C, C30G, U31C", "DNA 1": "CAATCTGAATTCCGGTCTCCC", "DNA 2": "TGGTGGCTACGACGGGATT"}, "B14": {"name": "AUACGAC (DNA:RNA)", "RNA": "B9 RNA with U25A, A26U, G27A, U29G", "DNA 1": "CAATCTGAATTCCGGTCTCCC", "DNA 2": "TGGTGGCTACGACGGGATT"}, "B15": {"name": "CUCCCGU (DNA:RNA)", "RNA": "B1 RNA with A25C, C26U, A27C, A28C, A29C, C30G", "DNA 1": "CAATCTGAATTCCGGTCTCCC", "DNA 2": "TGGTGGCTACGACGGGATT"}, "B16": {"name": "GAAUUCU (DNA:RNA)", "RNA": "B1 RNA with A25G, C26A, A28U, A29U", "DNA 1": "CAATCTGAATTCCGGTCTCCC", "DNA 2": "TGGTGGCTACGACGGGATT"}, "B17": {"name": "CUGCGUA (DNA:RNA)", "RNA": "B9 RNA with U25C, A26U, U29G, A30U, C31A", "DNA 1": "CAATCTGAATTCCGGTCTCCC", "DNA 2": "TGGTGGCTACGACGGGATT"}, "B18": {"name": "UUAAGCC (DNA:RNA)", "RNA": "B1 RNA with A25U, C26U, A29G, U31C", "DNA 1": "CAATCTGAATTCCGGTCTCCC", "DNA 2": "TGGTGGCTACGACGGGATT"}, "B19": {"name": "GCCCAGC (DNA:RNA)", "RNA": "B1 RNA with A25G, A27C, A28C, C30G, U31C", "DNA 1": "CAATCTGAATTCCGGTCTCCC", "DNA 2": "TGGTGGCTACGACGGGATT"}, "B20": {"name": "CUGAUCU (DNA:RNA)", "RNA": "B1 RNA with A25C, C26U, A27G, A29U", "DNA 1": "CAATCTGAATTCCGGTCTCCC", "DNA 2": "TGGTGGCTACGACGGGATT"}},
  "note": "Where a chain is given by its changes, count along the chain named. Some of the results follow.",
  "data": [
    {"target": "T1, RBFOX1 RRM (Homo sapiens, UniProt Q9NWB1 109-208)", "T1 sequence": "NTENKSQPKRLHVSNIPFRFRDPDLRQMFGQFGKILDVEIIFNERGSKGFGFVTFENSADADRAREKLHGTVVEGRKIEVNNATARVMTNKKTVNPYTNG", "experiment": "EMSA; HiTS-Eq, 1 nM pool, 10 min; buffer printed only for the single-RNA assays: 10 mM Tris pH 7.5, 150 mM NaCl, 3.4 mM EDTA, 0.001% NP-40, 30 C", "conditions": "tags: His6 N-terminal (pET28a); label: 5' 32P", "method_in_brief": "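These values rest on relative association constants, computed from read-count changes of each RNA species versus the control reaction and normalised to the cognate motif. Reads came from free RNA recovered by 8% native PAGE after purified RbFox RRM (wild type or mutant) at increasing concentrations was equilibrated for 10 min in 50 µL with 1 nM of a 5′-radiolabelled pool with 7 randomized nucleotides and DNA-annealed flanks.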", "values": [
      {"binder": "B1", "binding signal": "0.000249 KA relative to UGCAUGU"},
      {"binder": "B2", "binding signal": "0.0174 KA relative to UGCAUGU"},
      {"binder": "B3", "binding signal": "0.0159 KA relative to UGCAUGU"},
      {"binder": "B4", "binding signal": "0.00748 KA relative to UGCAUGU"},
      {"binder": "B5", "binding signal": "0.00659 KA relative to UGCAUGU"},
      {"binder": "B6", "binding signal": "0.00392 KA relative to UGCAUGU"},
      {"binder": "B7", "binding signal": "0.00837 KA relative to UGCAUGU"},
      {"binder": "B8", "binding signal": "0.0153 KA relative to UGCAUGU"},
      {"binder": "B9", "binding signal": "0.0152 KA relative to UGCAUGU"},
      {"binder": "B10", "binding signal": "0.0149 KA relative to UGCAUGU"},
      {"binder": "B11", "binding signal": "0.015 KA relative to UGCAUGU"},
      {"binder": "B12", "binding signal": "0.00386 KA relative to UGCAUGU"},
      {"binder": "B13", "binding signal": "0.022 KA relative to UGCAUGU"},
      {"binder": "B14", "binding signal": "0.00301 KA relative to UGCAUGU"},
      {"binder": "B15", "binding signal": "0.00391 KA relative to UGCAUGU"},
      {"binder": "B16", "binding signal": "0.0106 KA relative to UGCAUGU"},
      {"binder": "B17", "binding signal": "0.0152 KA relative to UGCAUGU"},
      {"binder": "B18", "binding signal": "0.00784 KA relative to UGCAUGU"},
      {"binder": "B19", "binding signal": "0.00937 KA relative to UGCAUGU"},
      {"binder": "B20", "binding signal": "0.0119 KA relative to UGCAUGU"}
    ]}
  ]
}
